Test results published in article PMC4336329 (PLoS ONE, 2015).
The campaign covered roughly 310,000 compounds. About 2,200 (0.71%) showed an effect of 50% or more. Effects have a minus sign here. The list shows a part of the results. Where a SMILES comes first, the peptide text is derived from it. [ ]: non-standard residue; d: D form. The star is where a group is joined. Phe(4-Me) = Cc1ccc(C[CH](N)C(=O)O)cc1; Bz = O=C(c1ccccc1)*

biological target: human ether-à-go-go-related gene (hERG) potassium channel (human, UniProt Q12809); test: primary screen, population patch clamp on CHO cells stably expressing hERG
Sequence (Q12809 whole entry, looked up): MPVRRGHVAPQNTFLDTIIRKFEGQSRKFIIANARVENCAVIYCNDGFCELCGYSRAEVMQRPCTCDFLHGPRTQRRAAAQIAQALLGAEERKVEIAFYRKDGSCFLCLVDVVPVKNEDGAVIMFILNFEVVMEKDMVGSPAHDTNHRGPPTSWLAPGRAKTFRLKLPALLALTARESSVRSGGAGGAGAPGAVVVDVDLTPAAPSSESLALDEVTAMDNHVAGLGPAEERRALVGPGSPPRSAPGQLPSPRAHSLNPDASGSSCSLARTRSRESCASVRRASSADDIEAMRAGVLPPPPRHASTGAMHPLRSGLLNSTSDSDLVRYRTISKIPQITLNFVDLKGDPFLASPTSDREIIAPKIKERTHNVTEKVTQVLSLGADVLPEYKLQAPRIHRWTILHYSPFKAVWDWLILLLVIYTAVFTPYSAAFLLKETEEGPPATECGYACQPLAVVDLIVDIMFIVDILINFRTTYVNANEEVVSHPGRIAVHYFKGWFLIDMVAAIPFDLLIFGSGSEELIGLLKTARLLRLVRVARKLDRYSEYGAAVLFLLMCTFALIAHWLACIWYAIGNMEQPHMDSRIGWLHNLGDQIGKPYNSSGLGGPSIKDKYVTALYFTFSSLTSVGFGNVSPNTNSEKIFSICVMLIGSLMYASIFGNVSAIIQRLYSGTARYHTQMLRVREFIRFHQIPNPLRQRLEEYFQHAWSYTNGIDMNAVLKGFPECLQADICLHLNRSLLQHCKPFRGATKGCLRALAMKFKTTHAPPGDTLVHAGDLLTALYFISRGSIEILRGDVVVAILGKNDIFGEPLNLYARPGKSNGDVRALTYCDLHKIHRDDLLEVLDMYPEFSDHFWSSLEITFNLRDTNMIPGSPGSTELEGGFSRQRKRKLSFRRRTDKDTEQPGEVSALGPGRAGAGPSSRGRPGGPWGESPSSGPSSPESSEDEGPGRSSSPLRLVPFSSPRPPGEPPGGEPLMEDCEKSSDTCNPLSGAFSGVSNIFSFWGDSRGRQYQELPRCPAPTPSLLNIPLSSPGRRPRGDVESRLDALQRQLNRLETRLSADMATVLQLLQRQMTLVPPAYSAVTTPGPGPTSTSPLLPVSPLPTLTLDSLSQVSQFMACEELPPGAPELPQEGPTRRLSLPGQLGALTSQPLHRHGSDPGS

SMILES | hERG current change (%, negative = inhibition) at 1uM [%]
Cc1c(C(=O)Nc2ccccc2F)sc2nc3n(c(=O)c12)CCC3 | 17.2
N#CCCn1c(C2CCCCC2)nc2ccccc21 | 2
CCN(CC)CCN(Cc1cc2cc(C)ccc2[nH]c1=O)C(=S)NCc1ccco1 | 9.85
Cc1ccsc1C1C2=C(CCCC2=O)Nc2ncnn21 (centres unmarked) | 11.5
CCc1ccc2c(CC(=O)Nc3cccc(S(=O)(=O)N4CCOCC4)c3)coc2c1 | 12.8
CC(C)c1ccc(NC(=S)N2CCN(S(=O)(=O)c3ccccc3)CC2)cc1 | 14.7
CCOCCCNC(=S)N1CCCC(c2nc3ccc(C)cc3[nH]2)C1 (centres unmarked) | 4.49
COc1ccc(Cn2c(=O)c3c(nc(NCCO)n3C)n(C)c2=O)cc1 | 6.91
CCOC(=O)C1=C(c2ccccc2)Nc2nc(C)nn2C1c1cccc(OC)c1OC (centres unmarked) | 8.11
Cc1ccc(CC(NC(=O)c2ccccc2)C(=O)NC(Cc2ccccc2)C(=O)O)cc1 (centres unmarked) (Bz-[Phe(4-Me)]-Phe-OH; configuration not given here) | 6.59
Cc1ccc(OC(=O)CCC(=O)N2CCc3ccccc32)cc1 | 6.94
Cc1c(NS(=O)(=O)c2cc(C(=O)O)ccc2Cl)c(=O)n(-c2ccccc2)n1C | 17.2
Cc1cc(C)nc(SCCC(=O)Nc2cccc3ccccc23)n1 | -1.85
COc1ccccc1NC(=O)Nc1ccc(CC#N)cc1 | 13.7
O=C(CCNS(=O)(=O)c1ccccc1)NCCCSc1ccccc1 | 5.69
COc1cc([C@H]2[C@@H]3CCCC[C@]3(O)CCN2CC(=O)Nc2ccc(C)cc2)ccc1O | 10.7
CCOc1cccc(OCCOCCN2CCCC2)c1 | 8.61
N#Cc1c(-c2ccc(Cl)cc2)c(C#N)c(=O)n(N)c1N | 13.9
CC(=O)c1ccc(S(=O)(=O)N2CCC(NC(=O)c3ccccc3)CC2)cc1 | 18.6

SMILES | hERG current change (%, negative = inhibition) at 1uM [%]
O=C(N/N=C/c1cc(Br)c(O)c(Br)c1)c1cc2c(ccc3ccccc32)o1 | 20.1
COc1ccccc1NC(=O)CSc1nc2sc3c(c2c(=O)n1-c1ccccc1)CCN(C)C3 | 10.5
Cc1ccc(NS(=O)(=O)c2c(C)noc2C)cc1 | -13.2
CCOC(=O)c1cc2sc(C)cc2n1CC(=O)N1CCc2ccccc21 | 7.63
COc1ccccc1/C=C1\SC(=S)N(CCC(=O)Nc2nnc(C)s2)C1=O | 9.95
O=C(N=C1SC2CS(=O)(=O)CC2N1c1cccc(Cl)c1)C1CCCO1 (centres unmarked) | 11.9
O=C1CC(c2cccc(Cl)c2)CC(O)=C1C=NCCCO (centres unmarked) | 15.5
O=C(CSc1nc2ccccc2n1CC(=O)N1CCCCC1)N1CCCCC1 | -15.9
C=CCn1c(=O)/c(=C/c2cc(OC)c(OC)c(OC)c2)s/c1=C(/C#N)c1nc2ccccc2n1C | 5.67
CC1CC(C)CN(CC(=O)Nc2ccc(S(N)(=O)=O)cc2)C1 (centres unmarked) | 11.6
CC1c2c([nH]c3ccccc23)CCC1C(=O)O (centres unmarked) | 17.7
CCCCc1nnc(NC(=O)c2ccc(-n3cncn3)c([N+](=O)[O-])c2)s1 | 2.92
Cc1ccc(C23CC4CC(CC(C(=O)NC(C(=O)O)C(C)C)(C4)C2)C3)cc1 (centres unmarked) | 13.5
O=C(Nc1ccc(C(=O)O)cc1)/C(=C/c1cccc(Br)c1)NC(=O)c1ccco1 | -1.32
O=S(=O)(c1ccc(F)cc1)N1CCN=C1SCc1cccnc1 | 3.86
C=CCn1c(-c2ccc(C)cc2)nc2ccccc21 | -14.4
CCCN(CC(=O)Nc1ccccc1C)C(=O)CCNC(=O)c1ccccc1Cl | 7.83
O=C(O)c1ccc(N/N=C/c2cccc3nccnc23)cc1 | 13.4
Cc1ccc(S(=O)(=O)NCCC(=O)N(C)Cc2cccs2)cc1 | 6.95

SMILES | hERG current change (%, negative = inhibition) at 1uM [%]
CCOC(=O)N1CCN(Cc2nc3cc(NC(=O)c4ccco4)ccc3n2C)CC1 | 6.57
COc1ccc(CCNCC2CCCO2)cc1.Cl (centres unmarked) | 12.6
COc1ccc(N2CCN(C(=S)Nc3cccc(C)c3)CC2)cc1 | 9.69
O=C(Nc1nnc(-c2cccnc2)o1)c1ccccc1Cl | 15.4
CCn1c(/C=C/c2ccc(O)c(O)c2)nc2ccccc2c1=O | 16
COC(=O)C(Cc1ccccc1)N1CCS(=O)(=O)CC1 (centres unmarked) | 18.6
N#Cc1ccc(S(=O)(=O)N2CCC(N3CCCCC3)CC2)cc1 | -18.3
COCCNC(=O)c1cc(-c2ccncc2)nc2ccc(S(=O)(=O)N3CCOCC3)cc12 | 4.51
CCCCNc1nc(=S)n(-c2ccccc2)c(C)c1C(C)=O | 9.18
CC1(C)OC(c2ccccc2)=C/C(=C/C=N/NC(=O)c2ccncc2)O1 | 4.58
Nc1nnc(CC(=O)N/N=C/c2ccccc2OCc2ccc(F)cc2)s1 | 7.43
CC1=C(C(=O)Nc2ccccn2)C(c2cn(C)nc2C)C2=C(CCCC2=O)N1 (centres unmarked) | 1.74
CC(=O)Oc1cc(C(C)C)c(OCCN(C)C)cc1C.Cl | 5.88
CC(C)(C)c1nnc(NC(=O)c2cccnc2)s1 | 14.9
CN1CCN(/N=C2/C(=O)Nc3ccc([N+](=O)[O-])cc32)CC1 | 6.39
O=CN(/C=C1\Sc2ccccc2C1=O)Cc1ccccc1 | 0.0966
O=C(c1ccccc1)N1CCN(CCc2ccccn2)CC1 | 16.3
Cc1cc(C)c2nc(N3CCC(C(=O)NCc4cccnc4)CC3)sc2c1 | -50.6
